In the supplement of paper PMC3334620:
In all, about 33,000 sequences were measured (“E-score (-0.5 to 0.5)”: median about -0.036, highest 2% from about 0.37 on). The list shows a part of the results.

What follows are sequences tested against T1, Yer064c (UniProt P40041) (assay: PBM E-score (8-mer binding enrichment) (E-score (-0.5 to 0.5)); higher = stronger / more preferred TF binding; most listed sequences are background and not binding sites). Settings: protein concentration: 200 nM; construct: GST-full length.
T1 sequence: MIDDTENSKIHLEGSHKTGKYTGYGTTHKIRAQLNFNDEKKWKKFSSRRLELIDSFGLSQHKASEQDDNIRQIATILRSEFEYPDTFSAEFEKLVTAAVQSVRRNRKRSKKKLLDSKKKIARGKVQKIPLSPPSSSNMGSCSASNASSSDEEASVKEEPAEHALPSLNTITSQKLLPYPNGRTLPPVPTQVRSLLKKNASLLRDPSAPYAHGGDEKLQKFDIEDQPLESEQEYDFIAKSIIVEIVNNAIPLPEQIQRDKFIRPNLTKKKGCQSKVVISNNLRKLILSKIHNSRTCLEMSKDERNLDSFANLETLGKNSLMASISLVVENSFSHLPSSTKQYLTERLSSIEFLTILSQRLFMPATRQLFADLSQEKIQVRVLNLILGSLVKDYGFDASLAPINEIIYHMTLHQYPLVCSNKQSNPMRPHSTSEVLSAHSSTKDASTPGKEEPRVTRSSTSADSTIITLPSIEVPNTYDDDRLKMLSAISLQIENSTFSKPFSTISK
Summary of the method: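 Universal all-10-mer Agilent arrays, fresh or stripped once, were converted to double-stranded form by primer extension. GST-tagged yeast transcription factors from PURExpress in vitro transcription/translation, full-length or DNA-binding domain only, were applied at about 100-200 nM and detected with fluorescent anti-GST. After masliner normalisation, the Universal PBM Analysis Suite scored each ungapped eight-base word together with its reverse complement by E-score.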

Sequence	PBM E-score
AGGGAGGA	-0.18
GATCCGCC	-0.041
GTCGAGCA	-0.135
CGCCTGAC	-0.0144
ATTCCCTG	0.0224
CCGCCTAG	-0.168
AATGGTCC	-0.0322
AGCAGTAG	-0.114
GTAGCTAC	-0.0525
AAGCGCAA	-0.136
AGACCAGA	0.0297
ATTGCTAA	0.058
CACATTAG	0.142
CGGAACTA	-0.16
GGATATCC	-0.314
AGACGACT	0.397
GAATATCC	-0.213
CGTTAGAA	0.0197
ACTTCCTA	0.158
AGCGCGTC	-0.174
ACACTAAA	0.0649
GCAGCACC	-0.194
CTGGGTCC	-0.268
CCATGTCC	-0.153
CGAACGTA	-0.0351

Sequence	PBM E-score
GGCCGCAA	-0.135
AATGTCGT	-0.0618
ACGGACCC	-0.253
AGAAAACT	-0.0404
GCGAACCC	-0.152
AGAGACAC	0.135
ACGTAAAT	-0.124
AGCCCGGA	-0.142
CATATTGA	0.24
CAAACGCA	-0.0486
CATTGGAG	0.0286
CGGTGCTA	-0.178
CATCTAAC	0.083
CAGTGGGC	-0.106
CAATGGCC	-0.281
CCCCTGCA	-0.127
GACATCAC	-0.0583
GTAACTAA	0.115
CGGGTGCA	-0.159
ACAAGAGA	-0.0733
GACTTGCC	0.158
AATGACAG	-0.045
ATACATTC	-0.0684
CTAGGCAA	-0.0898
CATCACGA	0.132

Sequence	PBM E-score
CTCTGTCC	-0.14
AACGTGGG	-0.189
CAATGTTC	0.0297
CCTCTCGA	-0.221
AGCATCCG	-0.201
ATGCTCTG	-0.221
ACGGCGCC	-0.206
GGATTGTA	-0.213
ACCTACGT	-0.0957
CAACCCTG	0.0094
CTACGAAG	0.00221
GGGACTTA	-0.0167
GCGCATGA	0.0941
CATGCACA	0.107
ATCGCACA	0.147
CGTACTCC	0.099
CCTATTTC	-0.224
ACATTAAA	-0.0887
CCTGTATA	-0.184
ATTTGGAG	-0.00763
ACCCTATC	0.0364
TCTGAGCA	-0.00297
GAGACGTA	0.0503
AAGCTTAG	0.0387
CGACAGGA	-0.111

Sequence	PBM E-score
AGTCATAT	0.484
ACCGATCG	-0.0467
GTCAGCCA	0.118
TACCTCCA	-0.065
AGTGCTAA	0.154
ACACTACC	-0.0729
GCGCGGTA	-0.107
AGGGATTG	-0.0992
CAACAAGC	0.115
ACCGAAAA	0.24
ATATAGGC	-0.0646
GGGTGCTA	-0.0714
GGGGCTAA	-0.145
AACCTTAA	0.02
GCAATTGC	-0.123
AAAGTCTC	-0.0362
TGATTTAA	0.407
CCACGTGA	-0.0389
ACAGCGAG	0.0422
GTGGGCAA	-0.133
AAGTCGCC	0.222
CAGGCAAA	-0.227
ATCGGAAC	0.164
ACCCCACG	-0.309
CCTGGACC	-0.157

Sequence	PBM E-score
GCGCTAAC	-0.217
CCAGAGCG	-0.0986
ACGTCTAC	0.0284
AAATCCCC	-0.314
ATGCTCGC	-0.124
AGCCTGAA	0.0248
CTAACTAA	0.225
AACTTGGC	-0.112
ACCATTGG	0.0904
ACTGACGG	0.00341
ACTCCCTC	0.095
GACGCATA	-0.182
ACACACTC	0.125
AACGCCTA	-0.228
CATGAATA	0.178
AAGTGTGG	-0.0229
CATCGACA	-0.0949
ATCACACA	0.191
CGGGAACG	-0.246
ACCCCGAG	-0.055
GGAGCGGA	-0.193
AGGCCTGC	-0.27
AGTCCTCG	0.334
ATAGTAAA	0.148
TGATCAAA	0.169

Sequence	PBM E-score
CAACCCGG	-0.105
GAAATAGC	-0.0517
CTGCGGCA	-0.106
CGTTACCC	-0.184
CCAGTCAC	0.313
AACCGCCA	0.158
GTTTCAGA	-0.00444
GACGTACA	0.027
AGAGAGTC	0.409
AGCGAGCC	-0.0928
ACCCAAGA	-0.0549
CCGTCGGC	-0.207
AAAATTGC	-0.223
GTGGGAGA	-0.113
CGACCGAG	-0.0331
CAACTTGC	-0.189
CAATGGTG	-0.177
ATGGTTCC	0.259
CATCGAGA	-0.111
CGCGCACA	-0.147
AAAATGTC	-0.0682
AGCTCTGG	-0.0975
ATGCTAAC	-0.0148
ACTCCGAC	0.306
AGACCGCT	-0.172

Sequence	PBM E-score
CCACCTAA	-0.0468
ACGGGTGG	-0.122
CATAACAA	0.108
CTCAGAAG	0.0956
AACGGAGC	-0.277
CCCCGTAC	-0.256
GGCTGCCA	-0.218
AAGTCACT	0.399
CACACGTC	-0.166
CAGATGTC	-0.101
ACTCCCGG	-0.0371
CCTCCCTA	-0.208
CTCAGCTC	0.0515
GATGGAGA	-0.117
ATGACAGC	0.0213
GAGGAAGC	-0.263
CTTTAAGC	0.211
CTCGATCC	-0.0538
ACGGGGCC	-0.327
CTCTACCC	-0.0358
GGGAACAC	-0.0597
AAGATCTC	0.0394
AATACTAG	-0.00028
CGACCAAC	-0.186
AGACACCG	0.11

Sequence	PBM E-score
TCATCAGA	0.259
ACCCATGC	0.155
GGTGGTAC	-0.292
AACCAACG	-0.128
TATTTCGA	0.137
GGTGAGTA	0.333
AGCAGCGC	-0.221
AGTAGCAA	-0.0676
CAAAACCC	-0.114
CACTCATC	0.258
CCAGCGTC	-0.408
AGACCCAA	-0.134
CGCGCCAC	-0.14
GTGCGAAA	-0.0762
GTGGAAAA	-0.075
AGACCACG	-0.09
AAACAAGA	-0.0226
AGGACTTC	0.201
CATCTTCG	0.0463
GTCACTGA	0.166
ACATGCCT	-0.044
ATTTCACA	-0.019
ATTCTGAG	0.224
TATTGTCA	-0.027
ACCGCCGA	-0.032

Sequence	PBM E-score
CTTACAAA	0.171
CGCGATCC	-0.0433
GAGATCCA	-0.167
GACAATGC	-0.229
ACACGAAA	-0.114
ACGGTGCG	-0.0974
GTCAATTA	0.123
TAGTTATA	-0.0161
AGAGATTC	0.135
GGCAACAA	-0.026
AATTCCGA	-0.0643
AGATCTGG	-0.211
AACAAGCG	-0.114
TACACAGA	0.061
CCTTACAC	0.0696
TACCGAAA	-0.0607
AAGAAGCT	0.0165
ATGCTTAG	0.125
CTTAGCGA	0.151
GCGTTGCC	-0.252
AGCGCCTG	-0.164
ACTTACAC	0.127
GACCATTA	0.0954
AATGAGTC	0.485
CAATGTCG	-0.14

Sequence	PBM E-score
GGACGCCA	-0.264
CATAGGGG	-0.149
GCCGACCA	-0.169
AGACTACT	0.376
ACAAATGA	0.148
AGGTAAGG	-0.188
CGAGCCGC	-0.00093
ATCCTAAC	0.0458
AGAGACAA	-0.175
TGAGCTAA	0.189
CAAACTCC	0.12
GATAGGCA	-0.15
GGAGCTAA	-0.114
AACATGGT	0.0458
GAACTGGA	-0.0938
TATGAAAA	0.133
ATGGTCAG	0.202
CGCGTGAA	0.00596
AGGATTAA	0.253
GACTTGAC	0.306
CCCTGTCC	-0.398
AATGAAGC	-0.191
CCGTCTTA	-0.154
CGAATGTA	-0.152
AATCGCTG	0.0806

Sequence	PBM E-score
ATGTAATC	0.291
GCGGCAAA	-0.171
AATCCCCC	-0.24
CTGCAAAC	-0.0903
CGCCATTA	-0.088
CAGCAAGA	-0.11
CAATATTA	0.0677
CTCCTAAA	-0.068
TAGGAAAA	-0.0846
ACCGCTTA	0.0807
AAGCTCGG	-0.0949
AGAGCTGA	0.0408
AGAGATTG	-0.195
ATTGTTCC	-0.0204
AGTCGGCA	0.3
GCGCAGCC	-0.302
AGGCGGAG	-0.108
ATATAGAT	0.101
GTCGTGTA	0.0966
AACCCACG	-0.128
CACCCCAG	-0.0194
AGGTTGGG	-0.146
AATCCACA	-0.0102
CCGTCAAC	-0.194
AATATCCA	0.0202

Sequence	PBM E-score
AGTATGAC	0.265
TCACCCCA	0.228
GCGATGAC	0.172
GAGTGGAC	-0.00734
AAAATGTG	0.129
CCGTGATA	-0.151
AAACCAGG	-0.113
ACCCTCAC	-0.132
ATAGCTGA	0.0375
GATTTCCA	-0.0421
AAGCTAGA	-0.0803
GGAAGATA	-0.125
CGCACCTC	-0.209
CAGTTGCA	-0.139
GTAGCAAA	-0.0145
CATGTTAC	0.144
CCGGCCGA	-0.056
CAGCCCCG	-0.324
CCATAGCC	-0.0772
TAGCGTCA	-0.0749
ATCGGCAT	-0.0938
CACTCTTC	0.0574
GTTAATGA	0.197
CACGCAGG	-0.0578
CGACAGCC	-0.212

Sequence	PBM E-score
AAGACATC	-0.0471
ATCCTGGA	-0.0068
GGTCCATA	-0.194
ATGATTTC	0.403
GTGAAACA	0.0596
CCCCCAGG	-0.115
CGACATTA	-0.0819
GTAGCCTA	-0.213
CGTAAAAC	-0.068
GCATTGAA	-0.0771
GTAGCGAC	-0.00447
AGGTAGTC	0.407
GGCCTAGA	-0.197
AGCCAGAC	-0.0524
ACTCTGAC	0.285
ACTCATCG	0.409
GACAGGAC	0.0367
GGCCAGGA	-0.209
CGTGTCCC	-0.0252
AACTTACA	0.0497
CATAAATG	-0.0161
GCTAACGA	0.107
ACACCCAT	0.132
CATCTTTC	-0.0885
GCGCTACA	0.0491

Sequence	PBM E-score
AAATGTCC	-0.343
AAATTCCC	-0.281
AATGGCGT	-0.273
GGGGGATA	-0.228
AAGGCACG	-0.201
AAGTAAGA	0.117
AATATAGG	0.0502
CGTGGGAC	-0.177
CTGGCTCA	0.319
TCGAACAA	0.118
GAAGGAGC	-0.361
ACATCTGG	-0.137
ATGCCTTG	-0.0136
CCAGGGCG	-0.314
GAATTGAC	0.148
CTCCACGA	0.0985
AACAAGCC	-0.205
AAAGAGCG	-0.115
GCCCCACA	-0.355
